According to article PMC12136788:
The list shows a part of the results.

T1: UNK ZnF1-3 (human, UniProt Q9C0B0 31-174)
T1 sequence: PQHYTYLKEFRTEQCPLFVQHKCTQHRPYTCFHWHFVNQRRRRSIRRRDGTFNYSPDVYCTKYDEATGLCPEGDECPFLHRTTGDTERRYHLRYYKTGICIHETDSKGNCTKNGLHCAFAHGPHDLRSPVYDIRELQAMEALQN

B1: 197144207_197145775_1926_CDS_ENSG00000177888_ENST00000367405|human|control|control (ssRNA)
RNA: GGGAGUUCUACAGUCCGACGAUCACAUUUUCCACAUUCUUCACACUGAUGAGCUUUUUCACCUGAAUGUAUUUUUUUGUGCUUUGUAAGGUGAUCAUGACGGAUAAAUGUUUUUCCACAUUCAUCGCACUCAUAUCUUUUAUCCAACAGAGGAUUGAGCAUCA
B2: chr2:178407766:178407767:+_ENSG00000018510_ENST00000264167|hu_hu|motif|central (ssRNA)
RNA: GGGAGUUCUACAGUCCGACGAUCAUUGACUGAUUCGAUGUGUAUCAGAGUACAGGUCCACCAUACAAUUAGUUAAAUAUACGGGAACAGAUUAUCCAAAACAACACUGUGGAAAGAAUUACCAGUGUUUCCACAUAUAACUGCCAACAGAGGAUUGAGCAUCA
B3: chr1:133829981:133829982:+_ENSMUSG00000026434_ENSMUST00000062264|mus_mus|FALSE|FALSE (ssRNA)
RNA: GGGAGUUCUACAGUCCGACGAUCGAACUGUAAUUAGAAAAUAUACCUUCAAUCUAAUGAGUUAGUUUUAAAAGGAAUUCUAAACAAGUCCAAUCAGACACACCUUUUACACAAGUAACGUAGAAGAUAGUAUUAUUUCUCAAUCAACAGAGGAUUGAGCAUCA
B4: chr12:39756943:39756944:-_ENSG00000139116_ENST00000544797|hu_mus|hu_hu_hu_mus_False|48_88 (ssRNA)
RNA: GGGAGUUCUACAGUCCGACGAUCGGUUUGGCUGUUACCCCCAAGGGAAUCCUGUAGGAGUCUUGUCAGCUUAGAGUCUCUGUAAGGGACAUGUGUGGCUCUCUUGCUCUUGUCCCCCAAGGCGCUGAUUACAUUCCCAAGAGCCAACAGAGGAUUGAGCAUCA
B5: 31532532_31534450_220_CDS_ENSG00000082213_ENST00000325366|human|control|control (ssRNA)
RNA: GGGAGUUCUACAGUCCGACGAUCGAAAUGUAAAAAACUUACAUUACUGGCAGGAAGAUGCUUUGAGCCUAUGGCCCGGUAUAUAAAGGGUAGAACCUCCUGAUGAUCCUCCACCACCCACACUGGGAGCUUGGGGUAACGCCGCAACAGAGGAUUGAGCAUCA
B6: chr3:176740097:176740098:-_ENSG00000177565_ENST00000430069|hu_mus|hu_hu_hu_mus_True|28_108 (ssRNA)
RNA: GGGAGUUCUACAGUCCGACGAUCUGUUUUUUACACCACAAAAGGAGGCACUUUCAGUAUCUGCAAAAGGUGUUUAGUCCUAAAACAUACUCACCUAGAGGAUAACUAAAACAGAAUAUCUGUUACACUCUAAGACCUACUCCACAACAGAGGAUUGAGCAUCA
B7: chr1:26449037:26449038:+_ENSG00000175087_ENST00000374271|hu_hu|motif|central (ssRNA)
RNA: GGGAGUUCUACAGUCCGACGAUCAUUUGCAAAUAAUAUGUGUCACGUUUCCCAGCUGCUAUCUUUAAAUGCAAUUUGUACGGAUCUGAGUUCUAGUUCAAAAGCAUCUGGACGAUCCUGAGGGUUUGCAGCCAGCAUUUCCUUCAACAGAGGAUUGAGCAUCA
B8: chr3:176740097:176740098:-_ENSG00000177565_ENST00000430069|hu_mus|hu_hu_hu_mus_True|18_108 (ssRNA)
RNA: GGGAGUUCUACAGUCCGACGAUCUGUUUUUUACACCACAAAAGGAGGCACUUUCAGUAUCUGCAAAAGGUGUUUAGUCCUAAAACAUACUCACCUAGAGGAUAACUCAGGAAAACAUCAAUACAAUCUCUAAGACCUACUCCACAACAGAGGAUUGAGCAUCA
B9: 77987833_77989049_584_CDS_ENSMUSG00000009828_ENSMUST00000044551|mouse|control|control (ssRNA)
RNA: GGGAGUUCUACAGUCCGACGAUCUAUCUGGUACAUUAUAUUCCUUAUAGCAGACUCUGGAAACAACUUAUUUCUUUCUUUAAUGAGCUGGUAAAGGUUUUCCUUCAUGUACUCGAAGAUAAAGUAAAGAUGGUCGUUUUCCCUCAACAGAGGAUUGAGCAUCA
B10: chr5:71490377:71490378:+_ENSG00000131711_ENST00000296755|hu_hu|FALSE|FALSE (ssRNA)
RNA: GGGAGUUCUACAGUCCGACGAUCACCUACUCCCAUUUUUUGGAAAAGAAUGACAGGAUCAAUAGUAUUGCCUACACUUCUAAACAGAGGUUCUGGUUUCAUGGACAAUUUGUUUAGGUACUGGAGAGUGAAGCAGGCUUCUUCCAACAGAGGAUUGAGCAUCA
B11: 204354501_204354621_777_CDS_ENSG00000173166_ENST00000319170|human|control|control (ssRNA)
RNA: GGGAGUUCUACAGUCCGACGAUCAGUAUCUUCUAGUACAGAUUGCUGAGCAGCCUCAUCCAUACUCAAAGAGGCCUGUUCUAACUGUGCAGUGACGUCGUCCAAGGAGUAGCUGGCAUGGGAAGGUUUAGCUAUCCUAUUAGACAACAGAGGAUUGAGCAUCA
B12: chr10:62544473:62544474:+_ENSG00000170312_ENST00000395284|hu_mus|motif|central (ssRNA)
RNA: GGGAGUUCUACAGUCCGACGAUCAGUGACUCUGUGUCUACCCUUAUACACCACACCGUAAGUACCUUCUCCAAUUUUCUCGGUUUUGAUAUAGUCUUCCAUAGUUACUCAACAGGUUACGACGGACCCUCUCGUGAGCUGUUCCAACAGAGGAUUGAGCAUCA
B13: chr2:48782750:48782751:-_ENSMUSG00000026761_ENSMUST00000141441|mus_mus|FALSE|FALSE (ssRNA)
RNA: GGGAGUUCUACAGUCCGACGAUCUUUUUCUGAUGAGCAAAAAUAUCAAAUUCAUCCAGUAUGAAGAUCACUGGGCAACUGCUAGUCCGGUCACCUUUUUGCAAAGCUUCCAGAAGAAAUGAAAGGUUUUCAGCAAAGCUUCCACAACAGAGGAUUGAGCAUCA
B14: chr1:225977404:225977405:+_ENSG00000143742_ENST00000304786|hu_mus|FALSE|FALSE (ssRNA)
RNA: GGGAGUUCUACAGUCCGACGAUCUACUCCAAAAGAAACAUACCACUGCAGCAAAAGUUACAUUUUAUUUCAUCUUAGACACAAUCUAGAAAGACCUUUUCUUGUUAACUCUUCAACAAAUUACUGACAUGAAUUUACCAGAAACAACAGAGGAUUGAGCAUCA

The binders below were run against T1, UNK ZnF1-3 (assay: nsRBNS (natural sequence RNA bind-n-seq); RBNS binding buffer (assumed for nsRBNS): 25 mM Tris pH 7.5, 150 mM KCl, 3 mM MgCl2, 0.01% Triton X-100, 500 ug/ml BSA, 20 U/ml SUPERase-In, 4 C; UNK is unkempt and MSI1 is Musashi-1; names of the RNAs are library labels; protein concentration not given here; high values mean tight binding).

Compared with B1, B2 is higher in binding signal: 0.335 enrichment R for the first, 1.36 enrichment R for the second.

First: B3
Second: B4
The binding signal of the first is higher: 1.47 enrichment R for the first, 0.775 enrichment R for the second.

Compared with B5, B6 is higher in binding signal: 0.807 enrichment R for the first, 0.841 enrichment R for the second.

First: B7
Second: B8
The binding signal of the first is higher: 0.961 enrichment R for the first, 0.911 enrichment R for the second.

Compared with B9, B10 is higher in binding signal: 0.622 enrichment R for the first, 1.15 enrichment R for the second.

Going from B11 to B12, the binding signal falls from 1.12 enrichment R to 0.642 enrichment R.

First: B13
Second: B14
The binding signal of the first is higher: 1.05 enrichment R for the first, 0.964 enrichment R for the second.
